{
  "source": "ChEMBL document CHEMBL1201862",
  "about": "“PubChem BioAssay data set” (2004)",
  "note": "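Growth conditions: 96-well plates. Treatment: test compound, 48 hours, 5 concentrations. Analysis: linear interpolation between bracketing concentrations; unreached endpoints set to highest concentration. GI50 is the concentration that inhibits growth by half.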 Active and inactive are the calls of the source. No stated cut-off is given here; in the data, active = GI50 up to about 1.1 µM and inactive = higher.",
  "data": [
    {"tested_on": "NCI-H322M", "test": "growth of human tumour cells (NCI), 48 h", "values": [
      {"smiles": "CC(C)(C)OCC1NC(=O)[C@@H]2Cc3c([nH]c4ccccc34)C(C3CCCCC3)N2C1=O", "note": "(some centres undefined)", "GI50": "inactive: 28.8 µM"},
      {"smiles": "CC1(C)CN=C(Nc2ccc(F)c(F)c2)S1", "GI50": "inactive: > 100 µM"},
      {"smiles": "Cc1nc(O)nc(O)c1/C=C/C(=O)O", "GI50": "inactive: > 1000 µM"},
      {"smiles": "COC(=O)C(=O)C(C(=O)C(=O)Nc1ccccc1C(C)=O)c1nc2ccc(C(=O)c3ccccc3)cc2nc1O", "note": "(centres undefined)", "GI50": "inactive: > 100 µM"},
      {"smiles": "C=C1C(=O)OC2C1CCC(C)C1C=CC(=O)C12C", "note": "(centres undefined)", "GI50": "inactive: 4.14 µM"},
      {"smiles": "CCN(CC)CCCNc1ccc2ncn3c4ccc(O)cc4c(=O)c1c23", "GI50": "inactive: 1.36 µM"},
      {"smiles": "Cc1ncc([N+](=O)[O-])n1CCN=[N+]=[N-]", "GI50": "inactive: > 100 µM"},
      {"smiles": "Cn1c(CC(O)c2nc3ccccc3n2C)nc2ccccc21", "note": "(centres undefined)", "GI50": "inactive: > 36.8 µM"},
      {"smiles": "O=C1/C(=C\\c2ccc([N+](=O)[O-])cc2)Sc2scc(-c3ccc(O)c(O)c3)[n+]21", "GI50": "inactive: 18.4 µM"},
      {"smiles": "C[C@]12CC(c3ccccc3O1)C(C(=O)Nc1nc(C34CC5CC(CC(C5)C3)C4)cs1)C(=O)N2", "note": "(some centres undefined)", "GI50": "inactive: > 100 µM"},
      {"smiles": "COc1ccc(-c2c3c(n(C4OC(COC(C)=O)C(OC(C)=O)C(OC(C)=O)C4OC(C)=O)c(=S)c2C#N)CCC3)cc1", "note": "(centres undefined)", "GI50": "inactive: > 100 µM"},
      {"smiles": "Cc1nnc2sc(-c3ccc(-c4ccccc4Cl)o3)nn12", "GI50": "inactive: > 100 µM"},
      {"smiles": "O=C(CNc1c(Cl)cccc1Cl)NC1C=Cc2ccc(S(=O)(=O)Nc3c(Cl)cccc3Cl)cc2C1=O", "note": "(centres undefined)", "GI50": "inactive: > 100 µM"},
      {"smiles": "O=[N+]([O-])c1nccn1CCCNCCCn1ccnc1[N+](=O)[O-]", "GI50": "inactive: > 100 µM"},
      {"smiles": "CCOC(=O)n1c(=O)nc2c3c(ncn21)Oc1c(c(-c2ccccc2)nn1-c1ccccc1)C3c1ccc(Cl)cc1", "note": "(centres undefined)", "GI50": "inactive: 1.37 µM"},
      {"smiles": "COc1cccc(OCC(=N/NC(=O)c2ccncc2)/N=C/c2cccnc2)c1", "GI50": "inactive: > 100 µM"},
      {"smiles": "O=C(c1ccccc1)c1ccc2[nH]c(-c3c(Cl)c(Cl)c(Cl)c(Cl)c3C(=O)Nc3ccco3)nc2c1", "GI50": "inactive: 51.9 µM"},
      {"smiles": "CCCCCCCCCC[C@@H](OC(C)=O)[C@@H]1CC[C@@H]([C@@H]2CC[C@@H]([C@@H](O)CC#C/C=C/CCCCCCC[C@@]3(Sc4ccccc4)C[C@H](C)OC3=O)O2)O1", "GI50": "inactive: > 10 µM"},
      {"smiles": "CC1(C)C(c2ccccc2)=[N+]([O-])C(C)(C)N1O", "GI50": "inactive: > 10 µM"},
      {"smiles": "O=C1/C(=C/c2ccco2)N=C(c2ccccc2)N1c1ccc(S(=O)(=O)Nc2nccs2)cc1", "GI50": "inactive: > 100 µM"},
      {"smiles": "CC1(C)CC(C#Cc2ccccc2)CC(C)(C)N1O", "GI50": "inactive: 19.3 µM"},
      {"smiles": "C=C1CC2C(=O)N(c3ccccc3)C(=O)C2CC1n1[nH]c(=O)n(Cc2ccccc2)c1=O", "note": "(centres undefined)", "GI50": "inactive: > 100 µM"},
      {"smiles": "CC[C@@]1(O)C(=O)OCc2c1cc1n(c2=O)Cc2c-1nc1ccccc1c2/C=N\\NC(=O)C(N)CS", "note": "(some centres undefined)", "GI50": "inactive: 16 µM"},
      {"smiles": "Cc1ccc(C2=NO[C@@H]3C(=O)N(c4ccc(Cc5ccc(N6C(=O)[C@H]7C(c8ccc(C)cc8)=NO[C@H]7C6=O)cc5)cc4)C(=O)[C@H]23)cc1", "GI50": "inactive: > 100 µM"},
      {"smiles": "CC1CNC(c2cccc(-c3nc(-c4cccc(C5=NC(C)CN5)c4)nc(N(C)C)n3)c2)=N1", "note": "(centres undefined)", "GI50": "active: 0.719 µM"},
      {"smiles": "CN(C)CCNc1ccc([N+](=O)[O-])c2nc3ccccc3c(N)c12", "GI50": "active: 0.698 µM"},
      {"smiles": "O=C(Nc1cccc(O)c1)C(=O)C(C(=O)c1ccccc1F)C1OC(=O)c2ccccc21", "note": "(centres undefined)", "GI50": "inactive: 15.8 µM"},
      {"smiles": "O=C(CCOS(=O)(=O)CF)N1CCN(C(=O)CCOS(=O)(=O)CF)CC1", "GI50": "inactive: > 100 µM"},
      {"smiles": "Cc1cc2c(=O)c3ccc(Cl)cc3[nH]c2c(C(N)=O)c1C", "GI50": "inactive: > 100 µM"},
      {"smiles": "COc1cc(-c2cc(=O)c3c(O)c(CC=C(C)C)c(O)cc3o2)ccc1O", "GI50": "inactive: 40.7 µM"},
      {"smiles": "C1CSCCSCCCSC2CCCCC2SC1", "note": "(centres undefined)", "GI50": "inactive: > 100 µM"},
      {"smiles": "Cc1cccc(C)c1NC(=O)CCC(=O)CC(=O)C(C)C", "GI50": "inactive: > 100 µM"},
      {"smiles": "CC(C)(C)C1=NC(=P(c2ccccc2)(c2ccccc2)c2ccccc2)C(=O)O1", "GI50": "inactive: > 100 µM"},
      {"smiles": "Cc1c2c(OCCN3CCCCC3)nn(C)c(=O)c2c(C)n1-c1ccccc1", "GI50": "inactive: 85.1 µM"},
      {"smiles": "COc1ccc2c(c1OC(C)=O)C1=CC(=O)CCC13CCNC3C2", "note": "(centres undefined)", "GI50": "inactive: > 100 µM"},
      {"smiles": "CCOC(=O)C1CCCCN1C(=O)OCc1ccccc1", "note": "(centres undefined)", "GI50": "inactive: > 100 µM"},
      {"smiles": "Cc1cc(S(=O)(=O)Nc2nc(N)nc(N3N=CCC3C)n2)c(SCC(=O)O)cc1Cl", "note": "(centres undefined)", "GI50": "inactive: > 10 µM"},
      {"smiles": "Cc1c(O)c(OC2OC(CO)C(O)C(O)C2O)cc2c1C=C[C@@H]1[C@@]2(C)C(=O)C[C@]2(C)[C@@H]([C@@](C)(O)C(=O)CCC(C)(C)O)[C@H](O)C[C@@]12C", "note": "(some centres undefined)", "GI50": "inactive: 25.4 µM"},
      {"smiles": "O=C(c1ccccc1)N1CCc2c([nH]c3ccccc23)C1", "GI50": "inactive: > 100 µM"},
      {"smiles": "O=C(CN(c1ccc(S(=O)(=O)O)cc1)c1ccc(S(=O)(=O)O)cc1)Nn1cnc2ccc(S(=O)(=O)N(c3ccc(S(=O)(=O)O)cc3)c3ccc(S(=O)(=O)O)cc3)cc2c1=O", "GI50": "inactive: > 100 µM"},
      {"smiles": "NNC(=O)CC(=O)Nc1ccc(C(=O)O)cc1", "GI50": "inactive: > 100 µM"},
      {"smiles": "CN(C)/C=N/S(=O)(=O)c1nn2c(C=O)c(-c3ccccc3)nc2s1", "GI50": "inactive: 24.1 µM"},
      {"smiles": "Cc1ccc(S(=O)(=O)OCC/C(=C\\[Si](C)(C)C)c2ccccc2)cc1", "GI50": "inactive: > 100 µM"},
      {"smiles": "CNCC(=O)Nc1ccc2c(c1)C(=O)c1ccc(NC(=O)CNC)cc1C2=O", "GI50": "inactive: 1.99 µM"}
    ]}
  ]
}
